Experimental data reported in paper PMC10320511.
Results are given in words; binding and its absence hold for the method and conditions named. In cells and extracts the contact can be indirect. Some results given as binding are weak or reduced against the parent protein; the word gives no strength. Tags and fused reporters may be left off the sequences shown.

Columns and labels:
[1] = molecular target: T1, FRQ Δ691–732, V5H6-tagged (Neurospora crassa) (UniProt P19970); test: co-IP; V5H6-tagged FRQ (wild type or mutant) pulled down with V5 agarose from Neurospora lysate (cultures in the light, 25 °C); 50 mM Hepes pH 7.4, 137 mM NaCl, 10% glycerol, 0.4% NP-40; 4 °C, 2 h; Western blot with FRQ, FRH, WC-1 and WC-2 antibodies
T1 sequence: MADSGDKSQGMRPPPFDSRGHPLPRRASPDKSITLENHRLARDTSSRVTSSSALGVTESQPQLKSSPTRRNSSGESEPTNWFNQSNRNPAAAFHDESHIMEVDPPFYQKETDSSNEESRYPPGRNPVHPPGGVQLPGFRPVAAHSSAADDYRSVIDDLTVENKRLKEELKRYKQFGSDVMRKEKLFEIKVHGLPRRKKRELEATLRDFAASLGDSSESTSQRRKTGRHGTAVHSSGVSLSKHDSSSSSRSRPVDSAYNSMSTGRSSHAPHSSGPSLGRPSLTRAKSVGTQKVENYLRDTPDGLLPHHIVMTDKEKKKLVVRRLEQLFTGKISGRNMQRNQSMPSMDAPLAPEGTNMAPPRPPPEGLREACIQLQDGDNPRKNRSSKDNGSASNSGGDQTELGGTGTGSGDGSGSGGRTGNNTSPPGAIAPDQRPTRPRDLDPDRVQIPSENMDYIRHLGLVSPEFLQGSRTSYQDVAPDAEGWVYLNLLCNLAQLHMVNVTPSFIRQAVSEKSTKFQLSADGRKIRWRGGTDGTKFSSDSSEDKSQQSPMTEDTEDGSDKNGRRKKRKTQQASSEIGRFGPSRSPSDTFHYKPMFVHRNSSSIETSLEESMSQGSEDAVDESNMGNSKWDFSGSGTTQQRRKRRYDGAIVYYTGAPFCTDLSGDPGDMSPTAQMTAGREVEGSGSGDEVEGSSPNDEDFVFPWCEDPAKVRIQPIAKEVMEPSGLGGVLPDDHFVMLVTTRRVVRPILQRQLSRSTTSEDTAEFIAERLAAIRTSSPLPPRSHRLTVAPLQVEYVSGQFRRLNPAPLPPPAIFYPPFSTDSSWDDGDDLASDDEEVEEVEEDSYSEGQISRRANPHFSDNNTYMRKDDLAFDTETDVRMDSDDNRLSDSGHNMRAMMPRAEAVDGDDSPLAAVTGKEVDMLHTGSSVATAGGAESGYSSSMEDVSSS

[2] = molecular target: T2, FRQ Δ604–646, V5H6-tagged (Neurospora crassa) (UniProt P19970); test: as above
T2 sequence: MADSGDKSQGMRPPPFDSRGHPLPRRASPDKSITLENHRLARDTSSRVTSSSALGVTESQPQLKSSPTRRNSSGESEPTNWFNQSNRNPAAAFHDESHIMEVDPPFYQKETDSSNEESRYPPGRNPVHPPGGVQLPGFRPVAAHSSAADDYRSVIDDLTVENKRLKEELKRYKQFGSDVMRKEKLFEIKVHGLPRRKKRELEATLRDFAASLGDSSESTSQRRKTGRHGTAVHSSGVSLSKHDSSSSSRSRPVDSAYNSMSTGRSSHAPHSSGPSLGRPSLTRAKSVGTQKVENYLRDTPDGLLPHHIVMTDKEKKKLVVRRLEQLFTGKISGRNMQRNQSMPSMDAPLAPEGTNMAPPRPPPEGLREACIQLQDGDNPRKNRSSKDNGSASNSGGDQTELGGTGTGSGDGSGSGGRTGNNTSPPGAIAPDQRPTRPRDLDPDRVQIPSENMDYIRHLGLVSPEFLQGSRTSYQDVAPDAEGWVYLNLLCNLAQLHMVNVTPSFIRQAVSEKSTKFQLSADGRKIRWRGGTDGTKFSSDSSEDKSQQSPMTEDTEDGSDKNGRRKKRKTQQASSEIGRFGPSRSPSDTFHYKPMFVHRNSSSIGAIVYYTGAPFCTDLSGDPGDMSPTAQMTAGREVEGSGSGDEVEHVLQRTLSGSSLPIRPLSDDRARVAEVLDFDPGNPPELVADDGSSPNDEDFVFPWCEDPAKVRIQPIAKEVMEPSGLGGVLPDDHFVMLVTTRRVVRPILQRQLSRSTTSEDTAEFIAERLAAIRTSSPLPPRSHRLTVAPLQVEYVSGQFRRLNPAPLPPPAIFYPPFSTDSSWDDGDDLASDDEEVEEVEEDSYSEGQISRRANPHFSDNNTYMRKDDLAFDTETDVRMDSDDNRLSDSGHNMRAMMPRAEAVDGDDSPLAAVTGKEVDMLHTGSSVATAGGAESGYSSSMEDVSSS

B1: White Collar-2 (WC-2) (protein, UniProt P78714 1-530)
chain: MSHGQPPPGSSMYGFGAMGMGSGMGSGMGSGMGTGMGTGMGTGMSASQMTSDPQDMMSLLDTSVFPGFDGMSMSLDVGDSMSNPFTPVSVPPPLPAGNAGPSHVGVCGGHGAPDQLFSPDDLIATSMSSAGPMIATPTTTTSGPSGGPSSGGGSTLTEFTKRRNWPAKVVEELQDWEHILDANGRIKHVSPSVEPLTGYKPPEIIDLFLRDLIHPDDVGVFTAELNEAIATGSQLRLFYRFRKKDGNWTIFETVGHAHIAAAKFAPNPQNQSPFCQAVFMMARPYPTKNAGLLDSFLEHKIENERLKRRIAELRREEQEEQEESHRTWRMSQEGRSDVTPSDDTATQMGMTPFYIPMNAQADVMMPPPSQPASSLNIALTRENLEGIAGSRPDSIREKMLRYEGNHADTIEMLTGLKYQEGERSHGITTGNASPTLIKGDAGIAIPLDRDPRTGEKKKKIKVAEEYVCTDCGTLDSPEWRKGPSGPKTLCNACGLRWAKKEKKKNANNNNNGGGIGGHNDIHTPMGDHMG
[1]
  binding: binds weakly
[2]
  binding: binds weakly
